According to the supplement of paper PMC4466236:
The full ranking holds about 33,000 sequences; the median of “E-score (dimensionless, -0.5 to 0.5)” is about -0.058, and the highest 2% start at about 0.35. The list shows a part of the results.

Test system: MvaT
Assay: PBM 8-mer E-score (mean of HK and ME arrays) (E-score (dimensionless, -0.5 to 0.5)); higher = stronger relative binding preference; most listed sequences are background and not binding sites
Summary of the method: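 Reported values are rank-based E-scores, taken as the mean of two universal arrays and parsed with a custom script. Each 8-mer score falls between -0.5 and 0.5. The arrays, ME and HK, were double-stranded 60-mers with a constant 25-mer primer region and a variable 35-mer region covering all 8-mers. They were probed, by an earlier protocol, with full-length P. aeruginosa MvaT carrying an N-terminal glutathione S-transferase fusion.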

Sequence | PBM 8-mer E-score
CCCCTAAA | -0.147
CGTCTCTA | -0.163
ATATGCTA | 0.256
GCAAATAA | 0.325
AACCGTCA | -0.0936
CTGGCGAC | -0.189
AACCTTCG | -0.219
TTGTCAAA | 0.147
GTACTCAC | -0.117
ATTCCCAG | -0.0249
CCTTCAAA | -0.128
AAGTAAAG | 0.234
TAGGTAGA | -0.0321
CTCCGATA | -0.118
AGTTGTAA | 0.331
ATTTTATA | 0.366
CCGGTGAC | -0.199
ACTAGCAC | -0.126
ATGGTGAG | 0.0089
GACCAGTC | -0.128
AGGACAGA | -0.179
GCTTCTAC | -0.0639
AGCAATGG | -0.0818
CTTGAATA | 0.146
ACGCTGCT | -0.0865

Sequence | PBM 8-mer E-score
GAACTAGA | 0.00473
GGAGGAGA | -0.298
CAAATTGC | 0.126
CCTCCCAA | -0.142
ACCCTCGT | -0.236
GGCTAGTA | -0.0824
AGTTAGGA | 0.17
ACTTCCCG | -0.0846
ACGTATAC | 0.136
CTTTCCAC | 0.0451
AATTGCGC | 0.159
CATGGTAA | 0.108
AGTTAGTC | 0.141
ACGCAAGT | -0.0978
AGGAATGA | -0.0938
GTGCGACA | -0.00395
CACTTCCG | 0.0768
CGTATCGA | -0.147
CGTGGGCA | -0.277
AACATTGA | 0.167
CCACTCGA | -0.278
CGTGAGAA | 0.0476
CGCGGGAC | -0.281
CATGGCAC | -0.112
CCGGTTAG | -0.0685

Sequence | PBM 8-mer E-score
CGGCGCAG | -0.0768
ACCCTCAT | -0.0973
AGTACCAC | -0.0361
GCTAGTGA | -0.23
GCCGATAC | -0.166
CGAAATGC | -0.0574
CACGCATC | -0.154
AACGAGTG | -0.0643
TAACAGGA | 0.223
ATACTCCG | 0.125
TACTGTCA | 0.0629
AGGATTCA | -0.067
CAACAATA | 0.289
ACCCCCCT | -0.302
CGCCTAAC | -0.126
CTGGAGTC | -0.179
CTCCAAGA | -0.0889
CTACCGAA | -0.0593
ATGCACTC | -0.108
ACAGATAG | -0.0481
AACTTCTC | 0.218
CCGATTTC | -0.0956
CCCCGCCC | -0.247
ATACCAAA | 0.243
AACAGTAT | 0.235

Sequence | PBM 8-mer E-score
ACTTATGG | 0.206
CCATTGAG | -0.216
GCTGGGTA | -0.0347
CTTGAGAA | -0.0449
GGAGTTTA | 0.164
AACGTTCC | -0.0472
ATTTCGTA | 0.122
AAAGTTAA | 0.353
CTGCCGCC | -0.273
GTTGCCTA | 0.0602
CAAGTTGA | 0.0252
GACCATCA | -0.146
ATTGTGTC | 0.157
CAATTCTC | -0.0483
GATCTCGC | -0.0777
AAGTAAGT | 0.309
AACGGCAG | -0.19
ACTTATAC | 0.326
GAGCGCTC | -0.125
ATACCGCG | 0.0191
ATTTATTG | 0.379
ATAGAAAG | 0.197
GTTGGACA | -0.106
AGTCGGAC | -0.0474
TACTATGA | 0.161

Sequence | PBM 8-mer E-score
CGTACCTC | -0.255
ATTCGGCG | -0.0422
AGGCGTAT | -0.0751
AAATGAGC | -0.015
ATATCCAC | 0.232
ACATGGGG | -0.0776
CCCGGCGG | -0.27
CGTCGTCC | -0.148
GCTAACAC | -0.0487
CAACGCAA | 0.077
GGCGAACA | -0.017
AGCCTCCT | -0.31
ACCCTAGG | -0.173
AATGGCTA | 0.0987
CCCATAAG | -0.0126
AGGCGAGC | -0.246
CACCGACG | -0.227
GTTAGCAA | 0.0716
GGGTATGA | 0.0144
CCAAAAGA | -0.187
CCAACCGG | -0.224
AGTTCCTC | -0.0593
TGGACCAA | -0.127
ATAGACAC | 0.0711
CACCATCC | -0.0843

Sequence | PBM 8-mer E-score
CATCACAC | 0.0723
AGATTGCT | -0.157
AGATACAC | 0.133
ACCGGGCT | -0.233
GCCGATCA | -0.201
GATTCGAA | 0.0542
ACTAATTA | 0.45
CATGCAGG | -0.119
CTTCGCCC | -0.271
AGTGATGC | 0.0354
GTTGAATA | 0.233
AAATCAGC | 0.0494
GAACAATC | -0.0504
ATATGAAC | 0.269
CCAGTGAC | -0.2
ACCGGCAT | -0.0557
CAGATTGG | -0.162
GTCACGGA | -0.109
AGAGAGCG | -0.217
CACCAAGC | -0.113
ATGGGGGC | -0.328
CAGTCCCC | -0.182
GGTCTGTA | -0.219
AAGAAGTA | 0.175
AAGATACA | 0.139

Sequence | PBM 8-mer E-score
ATATGGGG | -0.0181
GTACGGCA | -0.135
GCGGACCC | -0.209
CAACGGAA | -0.0283
CACAAATG | -0.0167
ACTAGACG | -0.119
CTCGCACC | -0.0422
AACCAGGC | -0.183
TCGTGAGA | -0.00942
TCAAGTCA | -0.0127
AAAGGCGC | -0.118
GTCCGGCA | -0.135
ATTAAAAA | 0.321
AGGCAACC | -0.0281
ACGTTTTC | -0.0292
GTCTGAAC | -0.149
AAGAATTC | 0.245
AAGGCGAA | -0.0329
ACTGTAGG | -0.076
ACGAAGGA | -0.0811
TCTTAAAA | 0.154
CTTAGTAA | 0.178
GTTATGGA | 0.184
AAAGGTCG | -0.155
TCATTAAA | 0.228

Sequence | PBM 8-mer E-score
CTTACGTC | -0.112
TCCATGCA | -0.0438
CACTCCGA | -0.123
ACTCTACA | 0.145
AGCACGCT | -0.262
AAGCACCA | -0.0658
AATGCCCG | -0.164
ACCAATAG | 0.0173
CCTCTGCC | -0.102
ATTTGCCG | 0.0909
CTCTCCTA | -0.116
AACATACG | 0.182
AGTGCTTG | -0.187
CGAATGTC | -0.16
AACAGCGA | -0.152
ATGAACAA | 0.187
GAGGCTAC | -0.292
AATAGGCA | -0.0295
CGAGTTTC | -0.0582
AGTGGTTG | 0.0398
ACGGCGTG | -0.291
GAAGGACC | -0.198
GAATAGCC | 0.0144
ACCTTACC | -0.0818
TAGCAACA | 0.0816

Sequence | PBM 8-mer E-score
CCGCTAGC | -0.139
GGACGCGA | -0.0753
AGCTGTAT | 0.127
GCTGTACA | -0.0468
AATTTGCG | 0.176
GAACATTC | -0.0126
ATGTGGGA | 0.0305
CTTGACAA | 0.113
GAGGCGAA | 0.0459
CGAGGGTC | -0.343
ACATTAGG | 0.0719
GGCCTGAC | -0.347
ACTGGAAA | 0.131
CACTGGAA | -0.13
GACAAGCA | -0.183
ATTCTTTC | 0.159
GAGCGAGA | -0.0584
AAGCTCGT | -0.106
CGAGCCTC | -0.261
